The results in this text go back to the RNAGym collection of RNA variant scans (doi:10.7554/elife.90254).

The source gives no read counts; variants with many changes may rest on few reads.

B1: LINE1-full (parent)
chain: UACGUAGGUGGUUUUCCCCUGAUAGUGCUAAGGGGGCCUGGAAGUUUGGACUGGGCAGAGCUCAACACAGCGUGGCAAAGUGGCUGUGGCUAGACUGCCUCUCUGGAUUCCUCGUCACUCAGCAGGGCAUCUCUGAGAGAAAUGCC

Variants of B1 are the subject of the data set. Briefly: self-cleavage, relative activity (ratio to wild type); higher = more cleavage; in vitro, sequencing; the parent is a self-cleaving ribozyme.
As for UACGAAGGUGGGUUUCCCCUGAUAGCGCUAAGGGGGCCUGGAAGUUUGGACUGGGCAGAGCUCAACACAGCGUGGCAAAGUGGCCGUGGCUAGACUGCCUCUCUGGAUUCCUCGUCACUCAGCAGGGCAUCUCUGAGAGGAACGCC [U5A U12G U26C U85C A140G U143C], the self-cleavage stood at 0.
In the case of UACGAAGGUGGUCUUCCCCUGAUAGUGCAAAGGGGGCCUGGAAGUUUGGACUGGGCAGAGCUCAACACAGCGUGGCAAAGUGGCUGUGGCUAGACUGCCUCUCUGGAUUCCUCGUCACUCAGCAGGGCAUCUCUGAGAGAAAUGCC [U5A U13C U29A] it was 0.
In the case of UACGAAGGUGGCUUUCCCCUGAUAGUGCUAAGGGGGCCUGGAAGUUUGGACUGGGCAGAGCUCAACACAGCGUGGCAAAGUGGCUGUGGCUAGACUGCCUCUCCGGAUUCCCCGUCACUCAGCAGGGCAUCUCUGAGAGAAAUGCC [U5A U12C U104C U112C] it was 0.71.
Regarding UACGAAGGUGGUUUUCCCCUGAUAGUGCUAAGGGGGCCUGGAAGUUUGGACUGGGCAGAGCUCGACACAGCGUGGCAAAGCGGCUGUGGCUAGACUGCCUCUCUGGAUUCCUCGUCACUCAGCAGGGCAUCUCUGAGAGAAAUGCC [U5A A64G U81C], the self-cleavage amounted to 0.4.
To UACGAAGGUGGUUUUCCCCUGAUAGUGCUAAGGGGGCCUGGAAGUUUGGACUGGGCAGAGCUCAUCACAGCGUGGCAAAGUGGCUGUGGCUAGUCUGCCUCUCUGGAUUCCUCGUCACUCAGCAGGGCAUCUCUGAGAGAAGUGCC [U5A A65U A94U A142G] belongs 0.14; to UACGAAGGUGGUUUUCCCCUGAUAGUGCUAAGGGGGCCUGGAAGUUUGGACUGGGCAGAGCUCAACACAGCGUGGCUAAGUGGCGGUGGCUAGACUGCCUCUCUGGAUUCCUCGUCACUCAGCAGGGCAUCCCUGAGAGAAAUGCC [U5A A77U U85G U132C], 0.17; to UACGAAGGUGGUUUUCCCCUGAUAGUGCUAAGGGGGCCUGGAAGUUUGGACUGAGCAGAGCUCAACACAGCGUGGCAAAGUGGCUGUGGCCAGACUGCCACUCUGGAUUCCUCGUCACUCAGCAGGGCAUCUCUGAGAGAAACGCC [U5A G54A U91C U100A U143C], 0.05.
In the case of UACUUAGGUGGUUUUCCCCUGAUAGUGCUAAGGGGGCCUGGAAGUUUGGACUGGGCAGAGCUCAACACAGCGUGGCAAAGUGGCCGUGGCUAGACUGCCUCUCUGGAUUCCUCGUCACUCAGCAGGGCAUCUCUGAGAGGAACGCC [G4U U85C A140G U143C] it was 0.15.
In the case of UACGAAGGUGGUCUUCCCCUGAUAGUGCUAAGGGGGCCUGGAAGUUUGGACUGGGCAGAGCUCAACACAGCGUGGCAGAGUGGCUGUGGCUAGACUGCCUCUCUGGAUUCCUCGUCACUCAGCAGGGCAUCUCUGAGAGAAAUGCC [U5A U13C A78G] it was 0.55; in that of UACGAAGGUGGUUUUCCCCUGAUAGUGCUAAGGGGGCCUGGAAGUUUGGACUGGGCAGAGCUCAACACAGCGUGGCGAAGUGGCUGUGGCUAGACUGCCUCUCUGGAUUCCUCGUCACUCAGCAGGGCAUCUCUGGGAGAAAUGCC [U5A A77G A136G], 1.72.
Regarding UACGAGGGUGGUCUUCCCCUGAUAGUGCUAAGGGGGCCUGGAAGUUUGGACUGGGCAGAGCCCAACACAGCGUGGCAAAGUGGCUGUGGCUAGACUGCCUCUCUGGAUUCCUCGUCACUCAGCAGGGCAUCUCUGAGAGAGAUGCC [U5A A6G U13C U62C A141G], the self-cleavage amounted to 0.4.
To UACGAAGGUGGUUUUCCCCUGAUAGUGCUAAGGGGGCCUGGAAGUUUGGACUGGGCAGAGCUCUACACGGCGUGGCAAAGUGGCUGUGGCUAGACUGCCUCUCUGGAUUCCUCGUCACUCAGCAGGGCAUCUCUGAGAGAAAUGCC [U5A A64U A69G] belongs 0.07; to UACUUAGGUGGUUUUCCCCUGAUAGAGCUAAGGGGGCCUGGAAGCUUGGACUGGGCAGAGCUCAACACAGCGUGGCAAAGUGGCUGUGGCUAGACUGCCUCUCUGGAUUCCCCGUCACUCAGCAGGGCGUCUCUGAGAGAAAUGCC [G4U U26A U45C U112C A129G], 1.31; to UACGAAGGUGGUUUUCCCCUGAUAGUGCUAAGGGGGCCUGGAAGUUUGGACUGGGCAGAGCUCAACACAGCGUGGCAAAGUGGCUGUGGCUAGACUGGCUCUCUGGAUUCCUCGUCACUCAGCAGGGCAUCUCUGAGAGAAACGCC [U5A C98G U143C], 0.13.
To UACGAGGGUGGUUUUCCCCUGAUAGUGCUAAGGGGGCCUGGAAGUUUGGACUGGGCAGAGCUCAACACAGCGUGGCGAAGUGGCUGUGGCUAGACUGCCCCUCUGGAUUCCUCGUCACUCAGCAUGGCAUCUCUGAGAGAAAUGCC [U5A A6G A77G U100C G125U] belongs 2.92.
To UACGAUGGUGGUUUUCCCCUGAUAGUGCUAAGGGGGCCUGGAAGUUUGGACUGGGCAGAGCUCAACAUAGCGAGGCAAAGUGGCUGUGGCUAGACUGCCUCUCUGGAUUCCUCGUCACCUAGCAGGGCAUCUCUGAGAGAAAUGCC [U5A A6U C68U U73A U119C C120U] belongs 0.66; to UACGAAGGUGGUUUUCCCCUGAUAGUGCUAAGGGGGCCUGGAAGUUUAGACAGGGCAGAGCUCAACACAGCGUGGCAAAGUGGCUGUGGCUAGGCUGCCUCUCUGGAUUCCUCGUCACUCAGCAGGGCAUCUCUGAGAGAAAUGCC [U5A G48A U52A A94G], 0.49; to UACGAGGGUGGUCUUCCCCUGAUAGUGCUAAGGAGGCCUGGAAGUUUGGACCGGGCAGAGCUCAACACGGCGUGGCAAAGUGGCUGUGGCUAGACUGCCUCUCUGGAUUCCUCGUCACUCAGCAGGGCAUCUCUGAGAGAAAUGCC [U5A A6G U13C G34A U52C A69G], 0.17.
In the case of UACGAAGGUGGUUUUCCCCUGAUAGUGCUAAGGGGGCCUGGAAGUUUGGUCUGGGCAGAGCUCAACACAGCGUGGCAAAGUGGCUGUGGCUAGACUGCCUCUCUGGAUUCCUCGUCACUCAGCAGGGCAUCUCUGAGGGAAAUGCC [U5A A50U A138G], the self-cleavage is 0.53.
In the case of UACGAAGGUGGUUUUCCCCUGAUAGUGCUGAGGGGGCCUGGAAGUUUGGACUGGGCAGAGCUCAACUCAGCGUGGCAAAGUGGCUGUGGCUAGACUGCCUCUCUGGAUUCCUCGUCACUCAGCAGGGCAUCUCUGAAAGAAAUGCC [U5A A30G A67U G137A] it was 0.14; in that of UACGAAGGUGGUUUUCCCCUGAUUGUGCUAAGGGGGCUUGGAAGUUUGGACUGGGCCGAGCUCAACACAGCGUGGCAAAGUGGCUGUGGCUAGUCUGCCUCUCUGGAUUCUUCGUCACUCAGCAGGGCAUCUCUGAGAGAAAUGCC [U5A A24U C38U A57C A94U C111U], 0.06; in that of UACGAAGGUGGUUUUCCCCUGAUGGUGCUAAGGGGGCCCGGAAGUUUGGACUGGGCAGAGCUCGACACAGCGUGGCAAAGUGGCUGUGGCUAGACUGCCUCUCUGGAUUCCUCGUCACUCAGCAGGGCAUCUCUGAGAGAAAUGCC [U5A A24G U39C A64G], 0.
To UACGAAGGUGGUUUUCCCCUGAUAGUGCUAAGUGGGCCUGGAAGUUUGGACUGGGCAGAGCUCAGCACAGCGUGGCAAAGUGGCUAUGGCUAGACUGCCACUCUGGAUUCCUCGUCACUCAGCAGGGCAUCUCUGAGAGAAAAGCC [U5A G33U A65G G86A U100A U143A] belongs 0.01; to UACGAAGGUGGUUUUCCGCUGAUAGUGCUAAGGGGGCCUGGAAACUUGGACUGGGCAGAGCUCAACACAGCGUGGCAAAGUGGCUGUGGCUAGACUGCCUCUCUGGAUUCCUAGUCACUCGGCAGGGCAUCUCUGAGAGAAAUGCC [U5A C18G G44A U45C C113A A121G], 0.86.
In the case of UACGAAGGAGGUUUUCCCCUGAUAGUGCUAAGGGGGCCUGGAAGUUUGGUCUGGGCAGAGCUCAACACAGCGUGGCAAAGUGGCUGUGGCUAGACUGCCUCUCUGGAUUCCUCGUCACUCAGCAGGGCAUCUCUGAGAGAUAUGCC [U5A U9A A50U A141U] it was 0.67; in that of UACGAAGGCGGGUUUCCCCUGAUAGUGCUAAGGGGGCCUGGAAGUUUGGACUGGGCAGAGCUCCACACCGCGUGGCAAAGUGGCUGUGGCUAGACUGCCUCUCUGGAUUCCUCGUCACUCAGCAGGGCAUCUCUGAGAGAAAUGCC [U5A U9C U12G A64C A69C], 0; in that of UACGAAGGUGGUUUUCCCCUGAUAGUGCUAAGGGGGCCUGGAAGUUUGGACUGGGCAGAGCUCAACACAGCGUGGCAAAGUGGCUGUGGCUUGACUGCCUCUCUGGAUGCCUCGUUACUCAGCAGGGCAUCCCUUAGAGAAAUGCC [U5A A92U U109G C116U U132C G135U], 0.32.
For UACGAAGGUGGCUUUCCCCUGAUAGUGCUAAGGGGGCCUGGAAGUUUGGACUGGGCAGAGCUCAACACAGCGUGGCAAAGUGGCUGUGGUUAGACUGCCUCUCUGGAUUCCUCGUCACUCAGCAGGGCAUCUCUGAGAGAAAUGCC [U5A U12C C90U], the self-cleavage was found to be 0.03.
To UACGAAGGUGGUUUUCCCCUGAUAGUGCUAAGGGGGCCUGGAGGUUUGGACUGGGCAGAGCUCGACACAGCGUGGCAAAGUGGCUGUGGCUAGACUGCCUCUCUGGAUUCCUCGUCACUCGGCAGGGCAUCUCUGAGAGAAAUGCC [U5A A43G A64G A121G] belongs 0; to UACUUAGGUGGUUCUCCCCUGAUAGUGCUAAGGGGGCCUGGAAGUUUGGACUGGGCAGAGCUCAGCACAGCGUGGCAAAGUGGCUGUGGCUAGACUGCCUCUCUGGAUUCCUCGUCACUCAGCAGGGCAUCUCUGAGAGAAAUGCC [G4U U14C A65G], 0.06.
To UACGAAGGUGGUUCUCCCCUGAUAGUGCUAAGGGGGCCUGGAAGUUUGGACAGGGCAGAGCUCAACACAGCGUGGCAAAGUGGCCGUGGCUAGACUGCCUCUCUGGAUUCCUCGUCACUCAGCAGGGCAUCUCUGAGAGAAAUGCC [U5A U14C U52A U85C] belongs 0.3; to UACGAAGGUGGUUUUUCCCUGAUAGUGCUAAGGGGGCCUGGAAGUUUGGACUGGGCAGAGCUCAACACAGCGUGGCUAAGUGGCUGUGGCUAGACUGCCUCUCUGGAUUCCUCGUCACUCAGCAGGGCAUCUCUGAGAGAAAUGCC [U5A C16U A77U], 0.59; to UACGAAGGUGGUUUUCCCCUGAUAGUGCUAAGGGGGCCUGGAAGUUUGGACUGGGCAGAGCUCAACACAGCGUGGCAAAGUGGCUGUGGCUAGACUGCCUCUCUGGAUUCCUCGUCACUCAGCAGGGCGUCUCUGCGAGAAAUGCC [U5A A129G A136C], 0.26.
On to UACUUAGGUGGUUUUCCCCUGAUAGUGCUAAGGGGGCCUGGAAGUUAGGACUGGGCAGAGCUCAACACAGCGUGGCAAAGUGGCUGUGGCUAGACUGCCUCUCUGGAUUCCCCGUCACUCAGCAGGGCAUCUCUGAGAGAAAUGCC [G4U U47A U112C], for which the self-cleavage was found to be 1.44.
In the case of UACGAAGGUGGUUUUCCCCUGAUAGUGCUAUGGGGGCCUGGAAGUUUGGACUGGGCAGAGCUCAACACAGCGUGGCAAAGUGGCUGUGGCUAGACUGCCUCUCUGGAUUCCUCGUCACUCAGCAGGGCAUCUCUGGGAGAAAUGCC [U5A A31U A136G], the self-cleavage came to 0.38.
To UACUUAGGUGGUUUUCCCCUGAUAGUGCUAAGGGGGCCUGGAAGUUUGGACUGGGCAGAGCUCAACACAGCGUGGCAAAGUGGCUGCGGCUAGACUGCCUCUCUGGAUUUCUCGACACUCAGCAGGGCAUCUCUGAGAGAAAUGCC [G4U U87C C110U U115A] belongs 0.37; to UACGAAGGUGGUUCUCCCCUGAUAGUGCUAAGGGGGCCUGGAAGUUUGGACUGGGCAGAGCUCAACACAGCGUGGCAAAGUGGCCGUGGCUAGGCUGCCUCUCUGGAUUCCUUGUCACUCAGCAGGGCAUCUCUGAGAGGAAUGCC [U5A U14C U85C A94G C113U A140G], 0.37; to UACGAAGGUGGUUUUCCCCUGAUAGUGCUAAGGGGGCCUGGAAGUUUGGACUGGGCAGAGCUCAACACGGCGUGGCAAAGUGGCUGUGGCUAGACUGCCUCUCUGGAUUCCUCGUCACUCAGCAGGACAUCUCUGAGAGAAAUGCC [U5A A69G G127A], 0.5.
With UACGAAGGUGGUUUUCCCCUGAUAGUGCUAAGGGGGCCUGGAAGUUUGGACUGGGCAGAGCUCAACACAGCGUGGCAAAGUGGCUGUGGCUAGACUACCUCUCUGGAUUCCUCGUCACUCAGCAGGGCAUCUCUGUGAGAAAUGCC [U5A G97A A136U], the self-cleavage was 0.13.
